Data from PubChem BioAssay AID485281 (National Center for Advancing Translational Sciences (NCATS), 2010).
In all, about 350,000 compounds went through this assay and about 260 (0.074%) were called active. This list was built around the results that the source calls inconclusive (neither active nor inactive); the mix of calls is not that of the screen. The call rests on the fitted dose curve; in most records, active means well fitted inhibition curve with a large enough effect; inconclusive means small, poorly fitted or top-dose-only effect; inactive means no such curve, though single readings can be large or run the other way. Potencies of inconclusive entries are doubtful fits and often do not repeat.

Molecular target: Ferritin light chain (Equus caballus) (UniProt P02791)
Test: qHTS Assay for Identification of Novel General Anesthetics; further: nearly all actives have a fitted effect of over 20% in size
Details: apoferritin/1-aminoanthracene competitive binding, fluorescence; activity change, negative = displacement: at 77.5 µM (top of the series)
Procedure, shortened: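 Probe: 1-aminoanthracene (50% saturated, PBS). Protein: horse-spleen apoferritin, 10 uM. Incubation: 10 min, room temperature. Detection: 380 nm excitation, 535 nm emission. Analysis: normalized response, four-parameter Hill.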
On the % scale 0 is the no-effect control and ±100 the full control effect; potency means the concentration at half of the fitted maximal effect; tags describe the fitted curve by direction and shape.

UniProt P02791, sequence (P02791 whole entry, looked up): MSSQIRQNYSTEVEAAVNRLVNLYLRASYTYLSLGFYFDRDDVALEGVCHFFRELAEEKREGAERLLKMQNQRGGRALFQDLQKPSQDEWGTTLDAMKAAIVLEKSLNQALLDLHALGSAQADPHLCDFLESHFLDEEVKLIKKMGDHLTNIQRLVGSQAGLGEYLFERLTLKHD

Potency, inconclusive:
Cc1cc2nc(N)sc2cc1[N+](=O)[O-] 28.2 µM [inhibitor, partial curve]
CC(c1ccccc1)C1C(C#N)=C(N)OC2=C1C(=O)CC(C)(C)C2 (stereo not drawn) 35.5 µM [inhibitor, partial curve]
CC(C)(C)c1ccc(OC(=O)N2CCOCC2)cc1 35.5 µM [inhibitor, single point]
O=S1(=O)CCOCCCN1Cc1ccccc1Br 20 µM [inhibitor, partial curve]
Cc1cc(C(=O)Cn2nnc3ccccc3c2=O)c(C)n1-c1ccccc1F 31.6 µM [inhibitor, partial curve, poor fit]
Cc1ccc(C2=NS(=O)(=O)N(C)C(C(=O)NC3CCCCC3)=C2)cc1 20 µM [inhibitor, partial curve]
Cc1cc(C(=O)NCc2ccccc2Cl)c2ccccc2n1 44.7 µM [inhibitor, partial curve, poor fit]
O=C(CSc1nnc(NC2CCCCC2)s1)Nc1ccc(N2CCOCC2)cc1 28.2 µM [inhibitor, single point]
Clc1ccc(Nc2ccc(-n3ccnc3)nn2)cc1Cl 39.8 µM [inhibitor, partial curve]
Fc1cccc(Cl)c1CNn1cn[nH]c1=S 5.62 µM [inhibitor, partial curve]
CCn1c(SCc2cccc(Br)c2)nnc1-c1nonc1NC(C)=O 31.6 µM [inhibitor, partial curve]
CC(=O)C1=C(NC(=O)c2ccc(F)cc2)CC2C1C2(C)C (stereo not drawn) 20 µM [inhibitor, partial curve]
Cc1ccc(O)c(C(=O)CC(=O)c2ccc(C(C)(C)C)cc2)c1 31.6 µM [inhibitor, single point]
O=C(Nc1c(C(=O)O)[nH]c2ccccc12)NC1CCCCC1 56.2 µM [inhibitor, single point]
Cc1ccc(CSC2=NCCN2C(=O)c2ccco2)cc1 28.2 µM [inhibitor, partial curve]
O=C(CN1C(=O)CSC1=O)Nc1ccc2c(c1)OCCO2 35.5 µM [inhibitor, partial curve]
COc1ccc(CNc2ncc(-c3ccc(Br)cc3)n2C)cc1OC 28.2 µM [inhibitor, single point]

Activity change, negative = displacement, inactive:
CCc1ccccc1NC(=O)Nc1cc(C(=O)NCc2cccc(F)c2)ccc1N1CCCC1 36.9%
